Experimental data from paper PMC13083723 (Patterns, 2026).
In all, about 5,400 compounds went through this assay and about 190 (3.5%) showed an effect of 50% or more. This is one part of the list. Non-standard residues stand in square brackets, D forms with d. Residues, ends and D or L forms follow the SMILES beside them.

tested on: Vero-E6; test: primary screen, phospholipidosis by LipidTOX staining; higher = more effect of the substance; conditions: 10 µM
Outline: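 Single-concentration screen at 10 μM, with DMSO 0.1 v/v % and amiodarone 10 μM as controls. Read-out is LipidTOX Red phospholipid staining, which tolerates aldehyde fixation, in Vero-E6 cells.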

Q: `CC(=O)N[C@@H](CS)C(=O)O` was tested. Which result_ITMP did it give?
A: 0.27%

Q: For `C[C@]1(c2nc3c(C(N)=O)cccc3[nH]2)CCCN1`, which result_ITMP is on record?
A: -1.53%

Q: With `O=C(O)Cc1cccc(OCCCN(Cc2cccc(C(F)(F)F)c2Cl)CC(c2ccccc2)c2ccccc2)c1` as the compound, how does the result_ITMP read?
A: -0.56%

Q: Which result_ITMP does the source give for `O=[N+]([O-])/C=C/c1ccc2c(c1)OCO2` here?
A: 4.02%

Q: With `CC(=O)O[C@H]1C[C@@]2(C)[C@@H](C[C@@H](O)[C@H]3[C@@]4(C)CC[C@@H](O)[C@@H](C)[C@@H]4CC[C@@]32C)/C1=C(\CCC=C(C)C)C(=O)O` as the compound, how does the result_ITMP read?
A: -4.35%

Q: `O=C(Nc1ccc(S(=O)(=O)C(F)(F)F)cc1)C1=CCN(c2ncccc2C(F)(F)F)CC1` was tested. Which result_ITMP did it give?
A: 9.06%

Q: With `CCCn1c(=O)c2nc(C34CC5CC(CC3C5)C4)[nH]c2n(CCC)c1=O` as the compound, how does the result_ITMP read?
A: -1.95%

Q: How did the result_ITMP turn out when `CC(C)=CCC[C@](C)(O)[C@@H]1CC=C(C)CC1` was run?
A: -1.53%

Q: How did the result_ITMP turn out when `CCn1nc(C2CCN(C(=O)CCO)CC2)nc1-c1cnc(N)c(-c2nnc(C(C)(C)C)o2)n1` was run?
A: -0.52%

Q: `O=C([O-])Cc1ccccc1Nc1c(Cl)cccc1Cl` was tested. Which result_ITMP did it give?
A: -2.2%

Q: For `COc1cccc2cc(-c3nc([C@H]4CC[C@H](C(=O)O)CC4)n4ncnc(N)c34)[nH]c12`, which result_ITMP is on record?
A: 7.64%

Q: With `COC(=O)C(Cc1ccc(OCCn2c(=O)sc3cc(C(=O)c4ccccc4)ccc32)cc1)C(=O)OC` as the compound, how does the result_ITMP read?
A: 0.06%

Q: `O=C1CCC[C@@H]2[C@H]3CCC[N+]4([O-])CCC[C@@H](CN12)[C@@H]34` (stereo partly drawn) was tested. Which result_ITMP did it give?
A: -6.58%

Q: `CS(=O)(=O)c1ccc(-c2cnc(NCc3ccco3)n3cnnc23)cc1` was tested. Which result_ITMP did it give?
A: -9.74%

Q: With `O=C1NC(=O)c2c1c1c3ccccc3n3c1c1c2c2ccccc2n1C1CCC3O1` as the compound, how does the result_ITMP read?
A: -2.37%

Q: How did the result_ITMP turn out when `C[C@@H](c1nc(-c2ccc(C#N)cc2)cs1)[C@](O)(Cn1cncn1)c1cc(F)ccc1F` was run?
A: -5.39%

Q: How did the result_ITMP turn out when `Nc1nc(O)c2c(n1)NCC(CNc1ccc(C(=O)N[C@@H](CCC(=O)O)C(=O)O)cc1)N2` (stereo partly drawn) was run?
A: -1.43%

Q: Which result_ITMP does the source give for `CN1[C@@H]2CC[C@H]1C[C@@H](OC(c1ccccc1)c1ccccc1)C2` here?
A: 35.6%

Q: With `Cc1onc(-c2c(F)cccc2Cl)c1C(=O)N[C@@H]1C(=O)N2[C@@H]1SC(C)(C)[C@@H]2C(=O)[O-]` as the compound, how does the result_ITMP read?
A: -6.63%

Q: How did the result_ITMP turn out when `O=C(CCBr)N1CC[N+]2(CC1)CC[N+]1(CCN(C(=O)CCBr)CC1)CC2` was run?
A: 9.73%

Q: `C[C@H](N)[C@H](O)c1ccc(O)c(O)c1` was tested. Which result_ITMP did it give?
A: -2.54%

Q: How did the result_ITMP turn out when `O=C1CN(/N=C/c2ccc(-c3ccc([N+](=O)[O-])cc3)o2)C(=O)[N-]1` was run?
A: -3.77%

Q: For `CC1(c2ccccc2)OC(C(=O)O)=CC1=O` (stereo not drawn), which result_ITMP is on record?
A: -2.07%

Q: For `Clc1ccc(C(Cn2ccnc2)OCc2ccc(Sc3ccccc3)cc2)c(Cl)c1` (stereo not drawn), which result_ITMP is on record?
A: 6.97%

Q: How did the result_ITMP turn out when `CC[C@H](C)C(=O)O[C@H]1C[C@@H](C)C=C2C=C[C@H](C)[C@H](CC[C@@H]3C[C@@H](O)CC(=O)O3)[C@H]21` was run?
A: -4.83%

Q: For `FC(F)(F)C(F)(F)C(F)(F)N(C(F)(F)C(F)(F)C(F)(F)F)C(F)(F)C(F)(F)C(F)(F)F`, which result_ITMP is on record?
A: -3.2%

Q: How did the result_ITMP turn out when `O=c1c2ccccc2nc2n1CCCCC2` was run?
A: 0.69%

Q: For `N=C(N)NCCC[C@@H](NC(=O)[C@@H]1CCCN1C(=O)[C@@H]1CSSC[C@H](N)C(=O)N[C@@H](Cc2ccc(O)cc2)C(=O)N[C@@H](Cc2ccccc2)C(=O)N[C@@H](CCC(N)=O)C(=O)N[C@@H](CC(N)=O)C(=O)N1)C(=O)NCC(N)=O`, which result_ITMP is on record?
A: -1.55%

Q: Which result_ITMP does the source give for `Cc1c(C)c2c(c(C)c1O)CCC(C)(C(=O)O)O2` (stereo not drawn) here?
A: -2.19%

Q: With `O=C(Nc1ccccc1)N1CCC(Cc2cnc3ccccc3c2)CC1` as the compound, how does the result_ITMP read?
A: -3.15%

Q: For `O=C(O)CCNc1cc(N2CCc3ccccc3CC2)nc(-c2cccnc2)n1`, which result_ITMP is on record?
A: 0.42%

Q: With `CCCCCCCC/C=C\CCCCCCCC(=O)NCCO` as the compound, how does the result_ITMP read?
A: -1.1%

Q: `CC(C)OC(=O)CNC(=O)[C@H](CS)NC(=O)CC[C@H](N)C(=O)O` was tested. Which result_ITMP did it give?
A: -6.76%

Q: `C[C@@H](O)[C@H]1C(=O)N2C(C(=O)O)=C(S[C@@H]3CN[C@H](C(=O)N(C)C)C3)[C@H](C)[C@H]12` was tested. Which result_ITMP did it give?
A: -1.56%

Q: How did the result_ITMP turn out when `CC(=O)NCC(=O)N[C@H](CCC(=O)O)C(=O)O` (Ac-Gly-[dE]-OH) was run?
A: -1.79%

Q: Which result_ITMP does the source give for `O=C(O)[C@H](O)[C@@H](O)[C@H](O[C@@H]1O[C@H](CO)[C@H](O)[C@H](O)[C@H]1O)[C@H](O)CO` here?
A: -2.78%

Q: With `COc1ccc(NC(=O)c2ccc(C(=N)N(C)C)cc2)c(C(=O)Nc2ccc(Cl)cn2)c1` as the compound, how does the result_ITMP read?
A: -7.3%

Q: For `CCc1oc2ccccc2c1C(=O)c1ccc(OCC(=O)O)cc1`, which result_ITMP is on record?
A: -9.49%

Q: Which result_ITMP does the source give for `O[C@H]1CC[C@H](Nc2ncc3nc(Nc4c(F)cc(F)cc4F)n([C@H]4CCOC4)c3n2)CC1` here?
A: 0.08%

Q: With `Cc1cc(C)cc(OCC2CNC(=O)O2)c1` (stereo not drawn) as the compound, how does the result_ITMP read?
A: 2.1%

Q: Which result_ITMP does the source give for `Cc1ccc(-c2nc3ccc(C)cn3c2CC(=O)N(C)C)cc1` here?
A: -1.72%

Q: How did the result_ITMP turn out when `CCCCCCCCCCCCCCCC(=O)OC[C@H](COP(=O)([O-])OCC[N+](C)(C)C)OC(=O)CCCCCCCCCCCCCCC` was run?
A: 2.02%

Q: For `C[C@]12C=CC(=O)C=C1CC[C@H]1[C@@H]3C[C@@H](O)[C@](O)(C(=O)CO)[C@@]3(C)C[C@H](O)[C@@]12F`, which result_ITMP is on record?
A: -2.83%

Q: How did the result_ITMP turn out when `O=C(O)/C=C/c1c[nH]cn1` was run?
A: -3.59%

Q: Which result_ITMP does the source give for `N#Cc1ccc(COC[C@H]2O[C@@H](n3c(NCc4ccc(Cl)c(Cl)c4)nc4c(N)ncnc43)[C@H](O)[C@@H]2O)cc1` here?
A: 1.67%

Q: With `CC1(C)O[C@@H]2C[C@H]3[C@@H]4CCC5=CC(=O)CC[C@]5(C)[C@@]4(F)[C@@H](O)C[C@]3(C)[C@]2(C(=O)CCl)O1` as the compound, how does the result_ITMP read?
A: 0.62%

Q: How did the result_ITMP turn out when `CC(=O)NCCCS(=O)(=O)[O-]` was run?
A: 7.64%

Q: For `CCCC(=O)C1CCN(c2ncnc3c2CN(C(=O)c2ccc(-c4ccccc4)cc2)CC3)CC1`, which result_ITMP is on record?
A: -1.76%

Q: For `C=C1CCN([C@H](C)[C@](O)(Cn2cncn2)c2ccc(F)cc2F)CC1`, which result_ITMP is on record?
A: -1.52%

Q: For `CN(C)CCN(C)CCc1ccc(Cl)c(Cl)c1`, which result_ITMP is on record?
A: 43.5%

Q: Which result_ITMP does the source give for `CCN(CC)C(=O)/C(C#N)=C/c1cc(O)c(O)c([N+](=O)[O-])c1` here?
A: -9.58%
